Switch fluorescence ratio data for 79 sequences are collected here from the supplement of paper PMC10126150.

Sequences with one replicate were seen in a single cluster, so their values are uncertain.
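Note: ATP exposure 15 min at 22 °C before imaging.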

This data set deals with ATP. The experiment in a line: switch fluorescence ratio, 500 uM ATP over buffer (Cy3 cluster intensity, sum of 5 cycles each) (fold (ratio)); higher = stronger signal-on switching upon ATP binding; sequences stand for … in TCGTCGGCAGCGTCAGATGTGTATAAGAGACAGTTTTTTTTTTTTTTTTTTTTTTTTT…TC. Conditions: aptamer strand: ATP DNA aptamer (quencher-CACCTGGGGGAGTATTGCGGAGGAAGG + anchor), 100 nM annealed; ATP concentration: 500 uM; one replicate. In a few lines:
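The quencher-labelled ATP aptamer, at 100 nM, was annealed to Cy3-labelled switching-strand clusters on a modified Illumina MiSeq flow-cell. The clusters were imaged in selection buffer, then after 15 min with 500 uM ATP at 22 °C, and this buffer/ATP cycle ran five times with NaOH stripping and re-annealing between runs. Per-cluster fluorescence ratios, summed target-cycle over summed buffer-cycle Cy3 intensity, were averaged per switch-domain sequence. Clusters outside 100-1000 RFU were excluded.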
For AGACTATTGT, the switch fluorescence ratio stood at 0.985.

Take AGATGGGCAT: the switch fluorescence ratio is 0.99.

With GTGTTTAGGC, the switch fluorescence ratio came to 0.905.

Consider TTGCATTCGC, for which the switch fluorescence ratio came to 1.

Consider AACGACCATA, for which the switch fluorescence ratio turned out to be 1.18.

As for CGGTTACAAT, the switch fluorescence ratio was 1.03.

In the case of GTGGGAAACG, the switch fluorescence ratio came to 1.04.

In the case of TTAGGGTTAC, the switch fluorescence ratio is 1.

Turning to TGAAATCTGG, the switch fluorescence ratio was 1.

In the case of GCTTATAGGG, the switch fluorescence ratio is 1.04.

With TGAGTAGAG, the switch fluorescence ratio came to 1.01.

Regarding GTAAGGGTGT, the switch fluorescence ratio was determined as 1.02.

As to CACCCGTTTG, the switch fluorescence ratio came to 1.01.

In the case of TGTAGATGTG, the switch fluorescence ratio came out at 1.

TGTGTCGGAT: the switch fluorescence ratio worked out at 1.04.

As to GTCGACCACG, the switch fluorescence ratio turned out to be 0.977.

In the case of CGGGGAATGA, the switch fluorescence ratio was 0.957.

For ATTCGATCCA, the switch fluorescence ratio is 0.997.

With AGCAGCCTGT, the switch fluorescence ratio came to 1.05.

For the sequence ATGTCCTGA, the switch fluorescence ratio stood at 1.03.

Take ACGAAAGTCG: the switch fluorescence ratio was found to be 1.01.

As to TTGGGGGCG, the switch fluorescence ratio came to 1.01.

Turning to GAGCAGCTTT, the switch fluorescence ratio amounted to 0.99.

Take CGCTGGTAGC: the switch fluorescence ratio is 0.994.

With AAGTAGGTAA, the switch fluorescence ratio amounted to 1.22.

On to TTCTCCTGCG, for which the switch fluorescence ratio came to 0.963.

Regarding GTTTATATCG, the switch fluorescence ratio came out at 0.972.

For TGATGTTACT, the switch fluorescence ratio was 1.02.

With GGTTGCAGAA, the switch fluorescence ratio was determined as 1.02.

As for GGAATATTCA, the switch fluorescence ratio was determined as 0.968.

For the sequence CATGGAGTCG, the switch fluorescence ratio amounted to 0.98.

On to TTACCGTAAT, for which the switch fluorescence ratio amounted to 1.22.

For the sequence AAGGTACTAA, the switch fluorescence ratio turned out to be 1.04.

On to TCGTAATGGC, for which the switch fluorescence ratio worked out at 1.07.

Take CGAAGCGTAA: the switch fluorescence ratio was determined as 2.54.

With GTTCGTTCTT, the switch fluorescence ratio is 1.01.

Consider ATAGCGCACT, for which the switch fluorescence ratio is 1.13.

AGCTCCGATG: the switch fluorescence ratio is 1.12.

As for AATGTGGGGC, the switch fluorescence ratio came out at 0.965.

CAGTGTTCGC: the switch fluorescence ratio was 1.02.

Turning to CACAGAAGAG, the switch fluorescence ratio is 1.14.

Take GTTAGAAAAG: the switch fluorescence ratio was 0.992.

On to CCGAAACGGA, for which the switch fluorescence ratio amounted to 1.06.

In the case of TTACGGTCGC, the switch fluorescence ratio came out at 0.992.

Consider GTGGTCAGCC, for which the switch fluorescence ratio amounted to 0.989.

Consider TTCATTAACG, for which the switch fluorescence ratio came out at 1.05.

Take AGGCCTAAAA: the switch fluorescence ratio turned out to be 1.01.

Take CATGCGAGGA: the switch fluorescence ratio is 1.03.

In the case of ATGGCCAAGG, the switch fluorescence ratio worked out at 0.989.

With TGGTTTCGGG, the switch fluorescence ratio worked out at 1.02.

Take TTCGGGATCA: the switch fluorescence ratio is 0.956.

As for CATCGTCCCG, the switch fluorescence ratio came out at 0.962.

As for GGAGGCTATT, the switch fluorescence ratio is 1.05.

Consider TATAACTAA, for which the switch fluorescence ratio amounted to 0.965.

AGCATATGC: the switch fluorescence ratio came out at 1.05.

In the case of AAATGGGCCA, the switch fluorescence ratio came out at 1.04.

Consider CCGGAGGTAG, for which the switch fluorescence ratio turned out to be 1.19.

Take TGCTACGCCG: the switch fluorescence ratio is 1.13.

TAGGCTGAA: the switch fluorescence ratio was determined as 0.996.

As to GTGGTGCGCA, the switch fluorescence ratio turned out to be 1.02.

As for TCCAGTTCT, the switch fluorescence ratio amounted to 1.

As for GGCCTATAGT, the switch fluorescence ratio came out at 0.997.

On to TATACCATGT, for which the switch fluorescence ratio stood at 1.02.

As for ATCTATGAGA, the switch fluorescence ratio turned out to be 1.02.

On to ACTTGATAGC, for which the switch fluorescence ratio turned out to be 1.

Consider GAATCTGCAC, for which the switch fluorescence ratio was determined as 1.47.

Regarding ACCAAGCTTA, the switch fluorescence ratio amounted to 1.04.

As to AATTTACCCT, the switch fluorescence ratio was 1.29.

CTCTAACTGA: the switch fluorescence ratio was 1.02.

For the sequence GCTTAGGGAT, the switch fluorescence ratio amounted to 1.05.

Consider TGTAGCAAAG, for which the switch fluorescence ratio was found to be 1.99.

With ATGTGATAAA, the switch fluorescence ratio is 0.964.

In the case of TGCCCCGGCA, the switch fluorescence ratio is 0.978.

ATCCTCGGTC: the switch fluorescence ratio was 1.08.

Consider AGGCCGAATG, for which the switch fluorescence ratio was 0.941.

Consider CTTGGCCAAT, for which the switch fluorescence ratio came out at 1.02.

Turning to TCGATGGGGC, the switch fluorescence ratio is 1.01.

Consider GAGTGTATTC, for which the switch fluorescence ratio amounted to 0.953.

On to GCGGTATTTG, for which the switch fluorescence ratio is 0.997.
